The results in this text go back to patent US9150659B2, “Anti-tace antibody molecules and their uses” (priority 2011, dated 2015).

In one assay the target is T1, cell surface TACE (Homo sapiens, UniProt P78536).
T1 construct: endogenous in cells; host or cells: TOV21G, IGROV1, PC3, HeLa (HeLa stably over-expressing the substrate HB-EGF-alkaline phosphatase)
Nature of the assay: TACE cell surface shedding assay, HB-EGF-AP, HeLa. It is filed as cell-based. The following applies: PMA stimulated HeLa HB-EGF-AP. The protocol:
Each well was stimulated with […] phorbol 12-myristate 13-acetate (PMA) for and supernatants were harvested after 1 hour. Soluble TNF-α, TGF-α and Amphiregulin were quantified by sandwich ELISA (R&D System Duoset) and HB-EGF alkaline phosphatase was measured as described in Willems et al (2010).

Assay [1] deals with T2, Recombinant human ADAM10 ectodomain (Homo sapiens, UniProt O14672).
T2 construct: Recombinant human ADAM10 ectodomain
T2 sequence (O14672 214-672 limits assumed): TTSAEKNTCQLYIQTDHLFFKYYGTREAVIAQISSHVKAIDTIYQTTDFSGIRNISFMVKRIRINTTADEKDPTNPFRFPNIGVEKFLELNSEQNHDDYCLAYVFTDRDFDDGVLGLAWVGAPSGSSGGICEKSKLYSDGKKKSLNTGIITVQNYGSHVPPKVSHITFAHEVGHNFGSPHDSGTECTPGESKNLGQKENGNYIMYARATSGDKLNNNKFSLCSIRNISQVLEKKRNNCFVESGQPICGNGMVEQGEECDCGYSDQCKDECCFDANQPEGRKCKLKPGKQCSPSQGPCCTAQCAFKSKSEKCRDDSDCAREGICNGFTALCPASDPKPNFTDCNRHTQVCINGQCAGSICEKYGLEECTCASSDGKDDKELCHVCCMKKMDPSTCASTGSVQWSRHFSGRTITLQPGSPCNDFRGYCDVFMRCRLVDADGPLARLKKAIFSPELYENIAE
Description: ADAM10 quench fluorescent peptide cleavage assay. It is filed as biochemical. The following applies: titrated concentrations.

T1 sequence (P78536 215-824): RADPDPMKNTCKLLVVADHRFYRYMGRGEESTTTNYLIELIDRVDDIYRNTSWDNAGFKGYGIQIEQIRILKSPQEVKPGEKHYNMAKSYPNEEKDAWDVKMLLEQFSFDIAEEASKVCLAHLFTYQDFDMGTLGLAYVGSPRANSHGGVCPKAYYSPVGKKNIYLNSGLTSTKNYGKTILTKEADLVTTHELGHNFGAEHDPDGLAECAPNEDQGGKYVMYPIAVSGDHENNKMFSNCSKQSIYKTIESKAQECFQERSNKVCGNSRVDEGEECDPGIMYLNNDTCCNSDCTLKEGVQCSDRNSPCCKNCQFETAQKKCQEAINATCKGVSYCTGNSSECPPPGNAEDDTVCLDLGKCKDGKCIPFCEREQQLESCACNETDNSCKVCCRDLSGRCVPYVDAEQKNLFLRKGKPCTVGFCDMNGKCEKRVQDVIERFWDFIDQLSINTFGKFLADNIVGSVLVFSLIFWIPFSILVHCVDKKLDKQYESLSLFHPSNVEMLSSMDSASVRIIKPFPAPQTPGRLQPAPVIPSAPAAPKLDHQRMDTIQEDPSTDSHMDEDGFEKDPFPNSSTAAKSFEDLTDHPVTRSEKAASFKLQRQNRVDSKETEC

B1: D1(A12) FAb: monovalent human FAb; heavy chain SEQ ID NO: 11, light chain SEQ ID NO: 12 (antibody, listed as Homo sapiens)
heavy: EVQLVESGGGLVRPGGSLRLSCAASGFTFSSYAMSWVRQAPGKGLEWVSAISGSGGSTYYADSVKGRFTISRDNTKNSLYLQMTSLRADDTAFYYCVKDFGPGYGTGWFDYWGPGTLVTVSAASTKGPSVFPLAPSSKSTSGGTAALGCLVKDYFPEPVTVSWNSGALTSGVHTFPAVLQSSGLYSLSSVVTVPSSSLGTQTYICNVNHKPSNTKVDKKVEPKSC
light: SDIQMTQSPSSLSASVGDRVTITCRASQSISSYLNWYQQKPGKAPKLLIHDASSLQSGVPSRFSGSGSGTDFTLTISSLQPEDFATYYCQQSFSIPLTFGGGTKMDIKRTVAAPSVFIFPPSDEQLKSGTASVVCLLNNFYPREAKVQWKVDNALQSGNSQESVTEQDSKDSTYSLSSTLTLSKADYEKHKVYACEVTHQGLSSPVTKSFNRGEC
For B1, the “inhibitory profile of FAb compared with IgG1” value with cell surface TACE is “comparable inhibitory profile to the IgG1”. For the same molecule, in assay [1], the “effect on ADAM10 proteolytic activity” value is “no effect”.
